The supplement of paper PMC12632987
The full ranking holds about 1,800 sequences; the median of “median log2 fold change of GCK-ALFA target abundance (FLAG IP / Myc IP barcode read proportion)” is about 0.14, and the lowest 2% start at about -0.84. The list shows a part of the results.

T1: TRAF2, Q12933
T1 chain: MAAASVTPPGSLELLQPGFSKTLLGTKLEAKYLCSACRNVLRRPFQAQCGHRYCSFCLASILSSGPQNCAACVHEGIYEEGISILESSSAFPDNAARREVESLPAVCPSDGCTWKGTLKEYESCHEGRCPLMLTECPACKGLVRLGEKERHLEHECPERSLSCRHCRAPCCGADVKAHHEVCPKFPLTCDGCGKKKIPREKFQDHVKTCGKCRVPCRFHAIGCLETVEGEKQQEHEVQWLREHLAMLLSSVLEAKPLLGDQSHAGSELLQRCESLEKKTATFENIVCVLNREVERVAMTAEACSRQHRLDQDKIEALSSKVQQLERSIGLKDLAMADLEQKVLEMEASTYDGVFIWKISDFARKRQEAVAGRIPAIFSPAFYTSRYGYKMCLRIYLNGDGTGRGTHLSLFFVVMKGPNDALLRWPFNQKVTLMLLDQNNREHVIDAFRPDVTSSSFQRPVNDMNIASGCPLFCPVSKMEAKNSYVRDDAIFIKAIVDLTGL

B1: traf2_out_15_48_1366 (protein)
chain: DLEKYRKVASEVADRQLAKADEVAKELRKLRPEASPEVRPMLDAIIEAAEKGAPLSDLIGGLRAAAKKASPELAKKLNALAEELEAVRREASKRIAEAMK
B2: traf2_out_13_95_1088 (protein)
chain: SEELKQEINKIADEALDRVEAALAALAARLAGDPAVAAAVAAARDLARTQGISAAIHALRELAAAHPEHAEELNALIAELEAIRREAGRKVAELLKKEKE
B3: traf2_out_17_162_1603 (protein)
chain: SSLEKKKEELLKKKEELKEELKRLTEKLKNIEKLSKEELSDLLVEASEKKREALEALEKIEELKDELDPEEYEKLSTEFEELAEEFQRIANKFYKELEKK
B4: traf2_out_1_27_985 (protein)
chain: SDEEFRELLREADRKLATLSLEEKLELAREVLRRAHEMGPSDLPLAATVIAVSAKTEEEFEALLAAARETMEELGVSPEEIERILAQMRTAYRLTREALA
B5: traf2_out_11_155_683 (protein)
chain: EKERELNNELVDKVTAIADDLKAQVRAIAAEAAAARPEHAAEIEAALAAAAPYSWRTFAGTAAALFERLGLADAAARVRALLAQAQKEANKVVKEIEAKK
B6: traf2_out_1_27_1002 (protein)
chain: SDEEERELLREANRKIGEASPEEQIEIIKETLEKALKLGIESPIHIGVVLILSLGEKETREKAIKAAEEVLKKGGISEEEIELMKKRVESGWKRLEKLLK
B7: traf2_out_13_95_1046 (protein)
chain: SAETAERIMEVADEAEERALALLEEARARVADDPEASAVLDEALDLAEKRGLSEALHLLREARAADPAHAELFDALIAELEAIRREAGRRVAEILKEEEE
B8: traf2_out_20_38_2042 (protein)
chain: EEEEKEEEQIELDVEIANEALDEVEERFAKWRAEGLSLEEIAERVKEEIRKAFKEAGLEEKLPEYLEQIDLVRDSPDAERLLERILARALALVRRKKREK
B9: traf2_out_18_117_1804 (protein)
chain: SEIEEAKREFEEALKRFEEVRREAQRVLGQLIEKHPHALPQEVTDAAVEFGEAKRRAEELKLEAEENSEDLEKLKELVEEMKRLTEEMERILRRLRELLE
B10: traf2_out_18_167_1857 (protein)
chain: SEELQKEYDKVSDELVKLSEVKRAAQEALRLLAEDPEAFPAALARLIALLDENGELKEDAEALRAATPEALAATLEAVAERAQKLANEKYKKLEELRKEL
B11: traf2_out_17_162_1563 (protein)
chain: SPIEEEWEELKRELERLRKEVERLEKELENLENMSKEEITDKLVEASRVKREALLLAERARKLKPLIGEEEAQKLIEEAERIAERAQRIANKLYKALEEK
B12: traf2_out_16_177_1453 (protein)
chain: ELDRLMDRLVILSELRRAALLAVEGRGDEYREHLARARELAEEAGDEEALALADRIEALIAENTPEAKEELKKLAEELQKEAQKLALEAEKLIKERAKEE
B13: traf2_out_20_38_2002 (protein)
chain: SMEEEEEERLKEIIDVANEAYDEATERIEALRAAGKSVEEIAAIVRAEVAELLDAAGLEEERDELLADIDRALSSPDALRLFARILARARALVKQKELNE
B14: traf2_out_14_149_1256 (protein)
chain: SATEEKKKALEEAAEIFKEIAEMLKKAIEEGSTDLDKEKLKELLKKAREILSKQGFVVSHLLAFEDLLEKTKEFTKEKLEELLKLAKAAIESLEVLREML
B15: traf2_out_16_104_1425 (protein)
chain: AAAAAAAFDAAIARLNAIADEANRIANRAMKLYEKASEEKKTALSDLLVEASELRREALAAAQAAEAARAAGGDLAAVKAALAALEARLAELKARLKELE
B16: traf2_out_20_3_2070 (protein)
chain: SELEAQLEKELEAAEALLKEAAALADPETAARLEALIARLKASRELSYDDRLVAVSEVRREVRELAEEARAAGDEELAALLEAAADELNRAAQLLYDILQ
B17: traf2_out_20_3_2202 (protein)
chain: EELEKKLEEELEKAEELLKKAKELADPETAKKLDELIKRLKESRELSYEDRLVELSEIRREVLLLAQQAKAEGNEELAKVLEEAAEAINRAKNLVYKIIE
B18: traf2_out_18_167_1859 (protein)
chain: MEELEKKLEEATDELVELSDIRRALLLILQALEESREKALELAEEELKRHPDSEILKETLEVLKTKSDEETRAFLEEKIEELQKKMNEKYKEVEKLRKEL
B19: traf2_out_17_162_1537 (protein)
chain: SETEEELKKLKEELKEIEKEKKELEEKSKKLSELSKEEISDLLVEVSELKRKARELAEKLKKLAEKTGSEEAKKLAKEAEEIAEELQKIANKIYKELEKK
B20: traf2_out_17_178_1664 (protein)
chain: SKEEERKKISELTDKLIDLAEKAADEALALLEAEGDATEEELALLREARRRGSANDVKALITRWIPKSKNAAALQALLDEFTKKYRELSKGIAEAYKKYE
B21: traf2_out_9_17_2606 (protein)
chain: SAAEEAARQAILDAAREVLAELVEEGYITEEEAEEILAKVRERLAAGKSPEEVVASFIGDIASTLLTKSDLPLSEINRIVGRAYRALRARLAAAAKAAAA
B22: traf2_out_8_174_2564 (protein)
chain: AELENLKTAANLGLEYAEKIEEIKEKVKELEKESLEKALKYAEEKIEELLKELDAKSEEAKKTEDPELATLINREINSMKQRAENMLEALKIRAEAKKKA
B23: traf2_out_18_167_1839 (protein)
chain: EEELEKKRQELSDRLVDLSAVRRAARRALHALETAPALVPAELARLEEEAERVPELQPLVAAARAALEAGDREGLRAELERLIEEAQRLMNEVMDELEAL
B24: traf2_out_17_162_1593 (protein)
chain: GSLEEELKRIEERLEELEKKLKELEEKLKNIEKLSKEELTDLLVEASEAKREALELLEEVESLKSKLDPETYEELSRRAEELAEKFQRIANAFYDELLKK
B25: traf2_out_9_108_2596 (protein)
chain: MTEEEKLEEIFKKVLELAEEFLKDPRLTPEQKEQLQQAIENAKKLYEKGLKRTAIITLAIDMARIAYDVGEEAVRELLERLEEIDPRAASAARRMVELLK
B26: traf2_out_20_3_2060 (protein)
chain: SELEKEIEKLEKELEKKLKELEKLLPPERAAELKKAWEKVKKAKEEGLDEYLIAVSELRRLLLELSEEAREEGDEETAKLLEEAAELAQRIAHLIYKKIE
B27: traf2_out_14_154_1271 (protein)
chain: DELYDELTYHSRMSRAYEAVVERLETEGPEAAAAQAEAAAAELKKLVPEKAAEIDAARDRILAALAGSPEEQAALAAELRELSERYSKKARELYKEIEKK
B28: traf2_out_11_169_850 (protein)
chain: EEKEKNRKIIDKALELEDEAKEKLKEHALALAKEAGLDVAEVEAIFEANKGKSLSAVAAALVRWFREQGKEEAAEKVLAKYEELKEEINKKMTEFIKELE
B29: traf2_out_14_149_1265 (protein)
chain: SKVKEVAERVLKLLKEVVEKAKEAIKTGTEEAREELFELIKEAAEEIEKLGKEIGVYFSSVAELKHLASQRDLPLEELLKRLEEILERSEVTAEFLIKEA

Target: T1, TRAF2, Q12933
Assay: median log2 fold change of GCK-ALFA target abundance (FLAG IP / Myc IP barcode read proportion) (log2 ratio); each designed protein is fused to an ALFA-tag nanobody in HEK293 cells to bring the named protein to FLAG-tagged glucokinase (GCK); Myc marks an untargeted standard; higher = target protein stabilised (more abundant)
Conditions: target protein: 3xFLAG-MCP-GCK-ALFA reporter; HEK293 landing pad (RPLP)
Summary of the method: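 Binders fused to an ALFA nanobody were recombined as a library into HEK293 landing-pad cells, which were induced with 2 μg mL^−1 doxycycline and then transfected to express a FLAG-tagged target and a Myc-tagged standard. After 48 h, circular RNA barcodes recovered by anti-FLAG and anti-Myc immunoprecipitation of lysates were reverse transcribed, amplified and sequenced. Each binder's target abundance is the median log2 ratio of FLAG to Myc barcode read proportions, from barcodes present at ≥10^−7 in both replicates, binders carrying ≥3 barcodes per replicate, a 10^−6 pseudocount and pooled replicates.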
In the case of B1, the “median log2 fold change” value is reported as 0.139. For B2, the “median log2 fold change” value was -0.556. B3 was tested, and the “median log2 fold change” value was 0.253. B4 was tested, and the “median log2 fold change” value was 0.166. With B5 the “median log2 fold change” value was 0.118. For B6, the “median log2 fold change” value was 0.311. In the case of B7, the “median log2 fold change” value is reported as 0.0598. For B8, the “median log2 fold change” value was -0.0369. For B9, the “median log2 fold change” value was 0.222. For B10, the “median log2 fold change” value was 0.218. In the case of B11, the “median log2 fold change” value is reported as 0.0431. B12 was tested, and the “median log2 fold change” value was -0.267. With B13 the “median log2 fold change” value was -1.43. For B14, the “median log2 fold change” value was 0.297. For B15, the “median log2 fold change” value was 0.118. For B16, the “median log2 fold change” value was 0.184. In the case of B17, the “median log2 fold change” value is reported as -0.0195. B18 was tested, and the “median log2 fold change” value was 0.344. With B19 the “median log2 fold change” value was 0.962. With B20 the “median log2 fold change” value was 0.178. B21 was tested, and the “median log2 fold change” value was -0.00895. With B22 the “median log2 fold change” value was 0.432. B23 was tested, and the “median log2 fold change” value was 0.184. B24 was tested, and the “median log2 fold change” value was -0.0834. In the case of B25, the “median log2 fold change” value is reported as -0.138. In the case of B26, the “median log2 fold change” value is reported as 0.136. B27 was tested, and the “median log2 fold change” value was 0.31. In the case of B28, the “median log2 fold change” value is reported as -0.596. For B29, the “median log2 fold change” value was 0.297.
